According to publication PMC7544229, “Periphilin self-association underpins epigenetic silencing by the HUSH complex” (Nucleic Acids Research, 2020):
Results are given in words; binding and its absence hold for the method and conditions named. For some of these results: In cells and extracts the contact can be indirect. Some binding calls cover weakened binding; strength is not graded here. For some of these results: Where a sequence is shown, tags or fusion partners need not be part of it.

T1: Δ1–127 Periphilin (V5-tagged) (human) (UniProt Q8NEY8)
T1 sequence: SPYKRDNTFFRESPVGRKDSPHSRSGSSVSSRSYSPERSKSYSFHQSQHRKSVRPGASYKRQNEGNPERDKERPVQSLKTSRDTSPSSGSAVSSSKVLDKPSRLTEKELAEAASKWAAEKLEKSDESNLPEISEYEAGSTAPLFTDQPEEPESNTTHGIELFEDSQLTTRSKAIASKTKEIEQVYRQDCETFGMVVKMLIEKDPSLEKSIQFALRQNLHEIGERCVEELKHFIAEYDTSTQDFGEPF

T2: Δ1–297 Periphilin (V5-tagged) (human) (UniProt Q8NEY8)
T2 sequence: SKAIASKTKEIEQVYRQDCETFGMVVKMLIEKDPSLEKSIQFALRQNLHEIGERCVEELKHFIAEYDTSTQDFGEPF

T3: Δ350–374 Periphilin (V5-tagged) (human) (UniProt Q8NEY8)
T3 sequence: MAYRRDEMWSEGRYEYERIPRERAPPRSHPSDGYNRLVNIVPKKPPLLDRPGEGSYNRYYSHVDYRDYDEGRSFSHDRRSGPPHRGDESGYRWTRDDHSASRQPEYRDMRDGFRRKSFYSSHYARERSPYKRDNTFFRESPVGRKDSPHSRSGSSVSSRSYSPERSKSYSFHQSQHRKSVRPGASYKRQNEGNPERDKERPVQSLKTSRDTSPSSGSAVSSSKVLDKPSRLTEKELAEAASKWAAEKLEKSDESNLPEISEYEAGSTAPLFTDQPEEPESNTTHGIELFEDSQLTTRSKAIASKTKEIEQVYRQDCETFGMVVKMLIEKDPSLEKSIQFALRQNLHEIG

T4: TASOR fragment (residues 1014–1095) (human, UniProt Q9UK61-1 1014-1095)
T4 construct: codon-optimized synthetic gene; untagged; Residues 1055–1071 are disordered in the crystal structure; also called untagged TASOR fragment; minimal core TASOR; source: E. coli BL21 (DE3), co-expressed with His6-Periphilin fragments from pRSF-Duet, co-purified with Periphilin
T4 sequence (looked up): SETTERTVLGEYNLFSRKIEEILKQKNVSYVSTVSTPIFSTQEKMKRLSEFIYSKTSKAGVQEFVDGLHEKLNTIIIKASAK


How the values were obtained:
[1] = target: T1, Δ1–127 Periphilin (V5-tagged) (human); assay: co-IP; IP of V5-Periphilin variants with anti-V5 antibody on Protein A/G resin from lysates (1% NP-40 or IGEPAL in TBS) of Periphilin KO HeLa cells complemented with Periphilin deletion mutants; 2 h at 4°C; TASOR detected by immunoblot
[2] = target: T2, Δ1–297 Periphilin (V5-tagged) (human); assay: as above
[3] = target: T3, Δ350–374 Periphilin (V5-tagged) (human); assay: as above
[4] = target: TASOR (endogenous) (human (endogenous in HeLa)) (UniProt Q9UK61); assay: co-IP; IP of endogenous TASOR with anti-TASOR antibody on resin from lysates (14 000 g supernatant, 1% NP-40) of Periphilin KO HeLa cells complemented with V5-Periphilin variants; 2 h at 4°C; Periphilin detected by its V5 tag
[5] = target: T4, TASOR fragment (residues 1014–1095); assay: crystal structure; Periphilin 292–367 with TASOR 1014–1095; sitting drop, 18°C, 0.1 M citrate pH 4.5, 1 M ammonium sulfate; SAD phasing with Br; refined at 2.5 Å; both purified

| Molecule | binding [4] | other results |
| --- | --- | --- |
| TASOR (endogenous) (from UniProt Q9UK61 1-1670) |  | binding [1]: binds; binding [2]: binds; binding [3]: no binding |
| wild-type Periphilin (V5-tagged, full-length, isoform 2) (protein, UniProt Q8NEY8-2 1-374) MAYRRDEMWSEGRYEYERIPRERAPPRSHPSDGYNRLVNIVPKKPPLLDRPGEGSYNRYYSHVDYRDYDEGRSFSHDRRSGPPHRGDESGYRWTRDDHSASRQPEYRDMRDGFRRKSFYSSHYARERSPYKRDNTFFRESPVGRKDSPHSRSGSSVSSRSYSPERSKSYSFHQSQHRKSVRPGASYKRQNEGNPERDKERPVQSLKTSRDTSPSSGSAVSSSKVLDKPSRLTEKELAEAASKWAAEKLEKSDESNLPEISEYEAGSTAPLFTDQPEEPESNTTHGIELFEDSQLTTRSKAIASKTKEIEQVYRQDCETFGMVVKMLIEKDPSLEKSIQFALRQNLHEIGERCVEELKHFIAEYDTSTQDFGEPF | binds |  |
| Periphilin L333A/I337A (V5-tagged) (protein, UniProt Q8NEY8-2 1-374) MAYRRDEMWSEGRYEYERIPRERAPPRSHPSDGYNRLVNIVPKKPPLLDRPGEGSYNRYYSHVDYRDYDEGRSFSHDRRSGPPHRGDESGYRWTRDDHSASRQPEYRDMRDGFRRKSFYSSHYARERSPYKRDNTFFRESPVGRKDSPHSRSGSSVSSRSYSPERSKSYSFHQSQHRKSVRPGASYKRQNEGNPERDKERPVQSLKTSRDTSPSSGSAVSSSKVLDKPSRLTEKELAEAASKWAAEKLEKSDESNLPEISEYEAGSTAPLFTDQPEEPESNTTHGIELFEDSQLTTRSKAIASKTKEIEQVYRQDCETFGMVVKMLIEKDPSAEKSAQFALRQNLHEIGERCVEELKHFIAEYDTSTQDFGEPF | no binding |  |
| Periphilin L326A (V5-tagged) (protein, UniProt Q8NEY8-2 1-374) MAYRRDEMWSEGRYEYERIPRERAPPRSHPSDGYNRLVNIVPKKPPLLDRPGEGSYNRYYSHVDYRDYDEGRSFSHDRRSGPPHRGDESGYRWTRDDHSASRQPEYRDMRDGFRRKSFYSSHYARERSPYKRDNTFFRESPVGRKDSPHSRSGSSVSSRSYSPERSKSYSFHQSQHRKSVRPGASYKRQNEGNPERDKERPVQSLKTSRDTSPSSGSAVSSSKVLDKPSRLTEKELAEAASKWAAEKLEKSDESNLPEISEYEAGSTAPLFTDQPEEPESNTTHGIELFEDSQLTTRSKAIASKTKEIEQVYRQDCETFGMVVKMAIEKDPSLEKSIQFALRQNLHEIGERCVEELKHFIAEYDTSTQDFGEPF | no binding |  |
| Δ1–70 Periphilin (V5-tagged) (domain or fragment, UniProt Q8NEY8-2 71-374) GRSFSHDRRSGPPHRGDESGYRWTRDDHSASRQPEYRDMRDGFRRKSFYSSHYARERSPYKRDNTFFRESPVGRKDSPHSRSGSSVSSRSYSPERSKSYSFHQSQHRKSVRPGASYKRQNEGNPERDKERPVQSLKTSRDTSPSSGSAVSSSKVLDKPSRLTEKELAEAASKWAAEKLEKSDESNLPEISEYEAGSTAPLFTDQPEEPESNTTHGIELFEDSQLTTRSKAIASKTKEIEQVYRQDCETFGMVVKMLIEKDPSLEKSIQFALRQNLHEIGERCVEELKHFIAEYDTSTQDFGEPF | binds |  |
| Periphilin fragment (residues 292–367) (domain or fragment, human, UniProt Q8NEY8-2 292-367, looked up, codon-optimized synthetic gene; preceded by a His6 tag and a TEV site (ENLYFQG), digested with TEV protease; Two copies of this chain form a homodimer in the 2:1 complex with TASOR; A residue of the TEV site (G) may remain at the N-terminus after cleavage; not shown: His6, N-terminal, cleaved) SQLTTRSKAIASKTKEIEQVYRQDCETFGMVVKMLIEKDPSLEKSIQFALRQNLHEIGERCVEELKHFIAEYDTST |  | binding [5]: binds |

Further lines, with some results ahead:

| binding [4] | Molecule | other results |
| --- | --- | --- |
| no binding | Periphilin L356R (V5-tagged) (protein, UniProt Q8NEY8-2 1-374) MAYRRDEMWSEGRYEYERIPRERAPPRSHPSDGYNRLVNIVPKKPPLLDRPGEGSYNRYYSHVDYRDYDEGRSFSHDRRSGPPHRGDESGYRWTRDDHSASRQPEYRDMRDGFRRKSFYSSHYARERSPYKRDNTFFRESPVGRKDSPHSRSGSSVSSRSYSPERSKSYSFHQSQHRKSVRPGASYKRQNEGNPERDKERPVQSLKTSRDTSPSSGSAVSSSKVLDKPSRLTEKELAEAASKWAAEKLEKSDESNLPEISEYEAGSTAPLFTDQPEEPESNTTHGIELFEDSQLTTRSKAIASKTKEIEQVYRQDCETFGMVVKMLIEKDPSLEKSIQFALRQNLHEIGERCVEERKHFIAEYDTSTQDFGEPF |  |
| no binding | Δ350–374 Periphilin (V5-tagged) (domain or fragment, UniProt Q8NEY8-2 1-349) MAYRRDEMWSEGRYEYERIPRERAPPRSHPSDGYNRLVNIVPKKPPLLDRPGEGSYNRYYSHVDYRDYDEGRSFSHDRRSGPPHRGDESGYRWTRDDHSASRQPEYRDMRDGFRRKSFYSSHYARERSPYKRDNTFFRESPVGRKDSPHSRSGSSVSSRSYSPERSKSYSFHQSQHRKSVRPGASYKRQNEGNPERDKERPVQSLKTSRDTSPSSGSAVSSSKVLDKPSRLTEKELAEAASKWAAEKLEKSDESNLPEISEYEAGSTAPLFTDQPEEPESNTTHGIELFEDSQLTTRSKAIASKTKEIEQVYRQDCETFGMVVKMLIEKDPSLEKSIQFALRQNLHEIG |  |
